From the supplement of paper PMC11417369
Some of the results follow.

system: PF3D7_0420300 AP2 domain 1 (GST-tagged); test: gcPBM binding intensity (ln(normalized median fluorescence intensity)); higher = stronger DNA binding
How it was run: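 GST-fused DNA-binding domains of P. falciparum, expressed in E. coli, were applied at about 25 μg on average for 1 h to an Agilent 4 × 180k array of primer-extended double-stranded 36-bp intergenic genomic probes and negative controls. Binding intensity is the highest Masliner-normalised natural-log median intensity across replicate spots of either probe orientation, measured with Alexa488 anti-GST antibody and a 488 nm scan.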

| Sequence | gcPBM binding intensity (ln) |
| --- | --- |
| CTTATTTTATTCGAATGTACATAATTGTTAGACATT [XGTACX_site8583] | 9.14 |
| AATAATAACAAATGAACACACATATAGATGAGCAAA [CACACA_site7076] | 9.89 |
| TATCTCATGCGCACAAAAATATATGCAAAGAGTATA [TGCATGCA_negctrl_site201] | 9.21 |
| CTTAAGTAAAATTAAAGTACATGGACAAAAAATATA [XGTACX_site7900] | 9.42 |
| TGGGTATATATAAAAGGTACACAAAATGAAGATATA [XGTACX_site4994] | 9.51 |
| TAATTTCTTATGTATTGTACAAATAATATATTATAT [XGTACX_site1037] | 9.28 |
| TTTTCTGTGTTTTTGGGTACACACAAATAGCTTGTA [XGTACX_site8553] | 9.6 |
| TGTTTCTAAAAATTTACACACAAAATATTTCTACAT [CACACA_site4098] | 9.55 |
| CCTATAAAACCATATACACACATATATATAAAAAAA [CACACA_site4013] | 9.65 |
| TTATACGATAATATGACACACAATACAAAAATGTAA [CACACA_site1918] | 9.49 |
| TATTGTAGTCATGCACGTACAAAAGGAAAGTTAAAA [XGTACX_site4446] | 9.17 |
| AAATAAAATATTACATGTACATGTTCATAAAAAAAA [XGTACX_site1067] | 9.13 |
| ATAAATTAATGGAGAAATCTTATGAATTTATTTTAA [CACACA_negctrl_site1068] | 8.86 |
| AATAAAAAGGAACACACACACACACCGATATATATA [CACACA_site5895] | 10.2 |
| TACATACACAGACACACACACATATATATATATATA [CACACA_site3557] | 9.89 |
| TAAATATAAGTGTACATACACACTTTACAATCTCAT [CACACA_site3006] | 9.28 |
| AATATATACATATATACACACACATATATTATATAT [CACACA_site7980] | 9.84 |
| AAAAAAAAAAAAATTGCATGTAAATGAAATAATAAA [TGCATGCA_site116] | 9.16 |
| AAAGAAGAAAAATATAGTACAGGGCACATGTCCTGT [XGTACX_site6293] | 9.2 |
| TTATTTTTATATTTCACACACATATACTTTTACATA [CACACA_site4097] | 9.77 |
| ATTTAAATTTAAAAAACACACATAATATGATATATA [CACACA_site1973] | 9.45 |
| CTCTTTTCTTATAATACACACAGTAATATTTATATA [CACACA_site6824] | 9.47 |
| AATAAAAAAAATTTCTGTACATATATTTATTATATA [XGTACX_site1883] | 9.01 |

| Sequence | gcPBM binding intensity (ln) |
| --- | --- |
| CAAACCCACCAACACACACACACAAAAATGATTAAA [CACACA_site2432] | 9.82 |
| TACTTTTTTATTTGGTGTACAAATAAAATCATAATG [XGTACX_site1802] | 9.15 |
| ATATATTTTGATTGCACACAGAATTTAAATCATGAT [CACACA_site2343] | 9.36 |
| GAAGATATATAATAATTCATAGTTTTTTAATTTAAA [TGCATGCA_negctrl_site295] | 8.86 |
| TATATTTTTATGTGTGTGCACAAAATAACAAAATAT [GTGCAC_site9596] | 9.61 |
| ATTATTTTTTTTGAAGTGCAATATTATTTTTAATCA | 9.1 |
| GTTAAGTGGATATATACACACATATGCAATACATGA [CACACA_site7427] | 9.5 |
| CAATTCAATATATATACACACACACTATTAATAATT [CACACA_site9256] | 9.98 |
| ATGGTTATATTTGAAGTGCAAAAAAAAATATATGTA | 9.24 |
| TATACTACCCAGAGCTGTACAAAATAATAATAAGTT [XGTACX_site1045] | 9.3 |
| ATGTGGATTTTATAATGTACATATGATATTATTTTG [XGTACX_site7930] | 9.28 |
| ATTCCTTTATTATCACGTACTTATAAAATATAGTAT [XGTACX_site7498] | 9.47 |
| TTAAATAAAATAAAAACATGCACACTTTATTTTTTT [TGCATGCA_site719] | 9.28 |
| ATAAACAGATAAAAGGGTACACACATATATACATGT [XGTACX_site452] | 9.9 |
| TTATATATATATTGTTCACACATAATATAAATATTT [CACACA_site5835] | 9.14 |
| TTTTTCATTTAGCTTTTACACACTATATATTATTGA [CACACA_site7888] | 9.5 |
| TTTTAATAAATCATTTTCCTAATATTTATATTTGCT [TGCATGCA_negctrl_site232] | 8.96 |
| TTTCTTTTTTCTTCAGTGCATTAAAATTAACAAAAG | 8.98 |
| TTTGTGTTGTATTTTTGTACATAAAATAAACTTAAA [XGTACX_site4637] | 8.99 |
| GAGCCCAAAAAATTAGGTACGTATAAAGAGGTATTT [XGTACX_site5348] | 9.05 |
| AGGAAAATTTTATTTGCACACATTATTACGTCTAAA [CACACA_site2337] | 9.34 |
| CATATATATATTGGAAGTACATATTTAATATTCATT [XGTACX_site3545] | 9.27 |
| TCTTTTTTCATATTTTCACACATGTCTTTATATTTA [CACACA_site6025] | 9.61 |

| Sequence | gcPBM binding intensity (ln) |
| --- | --- |
| ACATGTAATATAATGTGTACATATACAAAGGTATAT [XGTACX_site4145] | 9.47 |
| AGATGAGAAATATATACACACAATAATACCTATTTA [CACACA_site876] | 9.8 |
| ATAAAGTATATTATATGTACATATATATATTATATA [XGTACX_site1345] | 9.1 |
| AAAATAAAAAAAATAAATAAAAAAAATAATAATAAA [CACACA_negctrl_site563] | 9.32 |
| TCATAAATATAAAGTGTGCACTTGAATAATATGTAT | 9.37 |
| TAAATAAATCTGTGCTTGCACTTTTTTTGTTATTTT | 9.17 |
| ATATAAACATATAATAGTACACTTCGATAATTTTAT [XGTACX_site3321] | 9.35 |
| GTACCATCAAAATAAATATATATATATATATATTTT [GTGCAC_negctrl_site646] | 9.23 |
| ATTTAACATATAAAATGTACATATATATATATATTT [XGTACX_site2525] | 9.25 |
| GAATAAATTAAAAATGCACACTTTGATGGGTACATT [CACACA_site5220] | 9.3 |
| ACGTTTTATAATTAATGTACAAATATTAAAATTGCA [XGTACX_site7869] | 9.07 |
| TATGAATGGTTAAGTACACACATATTAAGATATGTA [CACACA_site5852] | 9.35 |
| TTATTTATTTTAAATTCACACATCGTGCTATTATAT [CACACA_site5003] | 9.17 |
| TCATATATTTATGTATGTACATATATATATAGATTA [XGTACX_site380] | 9.01 |
| TATATTTGCAGTAATAATAATTATTATAAAAGATAA [XGTACX_negctrl_site547] | 9.1 |
| TTTTTATAACGTAATAAATAAAACGTCTATACTATA [XGTACX_negctrl_site176] | 8.98 |
| AAAAATATAATATAATGTACACAAAAAAAAAAATTC [XGTACX_site3657] | 9.48 |
| AATTAGACATAATATACACACATATATTATAGATAT [CACACA_site7297] | 9.69 |
| TAAAGATATTATTTTTGTACATATTGATATAATGAA [XGTACX_site6571] | 8.91 |
| TATATTATTATAATTTGTACATATCTAATTATATAT [XGTACX_site5342] | 9.17 |
| ATATAACATAGACACACACACATATAAATATATTAT [CACACA_site7865] | 10 |
| CTTTATAAAATAAGAGTGCGTTATATTGAATTGTAT [GTGCAC_site9390] | 9.18 |
| ATATAAGATTTAAGAAGTACAATTATACAGTAGATC [XGTACX_site7501] | 9.38 |

| Sequence | gcPBM binding intensity (ln) |
| --- | --- |
| CATATAAAATAATTCACACAAATATACAAATACCCA [CACACA_site5340] | 9.66 |
| AAAAAAAATTTCTTCTGTACGCATAAATTTTTATTA [XGTACX_site8721] | 8.94 |
| TATTTAATTTTTAAATGTACATATAAAATAATATAT [XGTACX_site2422] | 8.89 |
| TTTTTCAGAAAAGAAACACACATATATATATTTATA [CACACA_site2372] | 9.23 |
| AATGATAATATTTCCTTCTTTTTTACTTCTTTCTTT [CACACA_negctrl_site776] | 9.4 |
| AAAATGGTTTATAAATGTACATATATTATATATAAC [XGTACX_site7959] | 9.28 |
| CCTATCCAGACATATACACACATATCTATTTATATA [CACACA_site5001] | 9.66 |
| TATAAAAAATAATACACACACATGGCGACAAAATAA [CACACA_site2420] | 10.2 |
| TTTACTTTCCCAAGTTGTACTGCTTCTAAGCTTTTT [XGTACX_site2708] | 9.21 |
| GATAAATTAAAACACACACACATATATATATATATA [CACACA_site3962] | 9.67 |
| AAAAAAATAGTCTTCTTGCACTTTTTAATTTATTTT | 9.11 |
| TTATAATAAAATGAATATATATAATTTAAAATATTT [CACACA_negctrl_site1651] | 8.95 |
| AAAAAAAGTTATATTACACACTTTATTCGTTAACTT [CACACA_site3013] | 9.47 |
| ATATTTATGAAGTTCACACATATATATATATATATA [CACACA_site5954] | 9.16 |
| ACAACAATATTTGAATGTACTCTATTTTCGTTGTTC [XGTACX_site593] | 9.4 |
| CTCAAAGGAATATTCACACATAAATTATAGACTACA [CACACA_site6050] | 9.23 |
| TAATTATATTCACTTGCTATATAAATTATATATATT [CACACA_negctrl_site526] | 9.34 |
| ATACACACTCAAAAAAGTACTTAACTACATGAATTG [XGTACX_site6366] | 9.39 |
| AAGAAAAAAATATATGTTTATTTACTTTAATAATTT [TGCATGCA_negctrl_site168] | 9.02 |
| GTATATATATATATATGCAAATGTATAAATCTACAT [CACACA_negctrl_site546] | 9.2 |
